Laboratory results from the antibiotic and cytotoxicity screens of Wong et al. (2023).
The other results are listed elsewhere or left out.

System: S. aureus RN4220
Assay: growth inhibition call (relative growth <= 0.2)
Conditions: 50 µM

Growth inhibition call, inactive:
CS(=O)(=O)N1C[C@H]2CN(Cc3ccncc3)C(=O)[C@@H]2C1
Cc1ccc(S(=O)(=O)Nc2ccc3c(c2)C(=O)N([C@H](C)CO)C[C@H](C)[C@H](CN(C)Cc2ccc4c(c2)OCO4)OCCCC[C@@H](C)O3)cc1
Cc1ccc(S(=O)(=O)Nc2ccc3c(c2)CC(=O)N([C@H](C)CO)C[C@H](C)[C@H](CN(C)S(=O)(=O)c2ccccc2)O3)cc1
CC(C)NC(=O)N(C)C[C@H]1Oc2c(NS(=O)(=O)c3ccc(F)cc3)cccc2C(=O)N([C@H](C)CO)C[C@H]1C
C[C@@H]1CN([C@H](C)CO)C(=O)c2cc(C#Cc3cccc(F)c3)cnc2O[C@@H]1CN(C)CC1CCOCC1
CC(=O)N1CCCC(=O)CC1
COc1ccc(S(=O)(=O)Nc2ccc3c(c2)C(=O)N([C@@H](C)CO)C[C@H](C)[C@@H](CN(C)Cc2ccc(C(F)(F)F)cc2)OCCCC[C@H](C)O3)cc1
CNC[C@@H]1OCCCC[C@@H](C)Oc2ccc(NC(=O)CCCN(C)C)cc2C(=O)N([C@H](C)CO)C[C@H]1C
COC[C@@H](O)CNc1ncnc2c1CCNCC2
C[C@H](CO)N1C[C@H](C)[C@@H](CN(C)S(=O)(=O)c2ccc(Cl)cc2)Oc2ccc(NC(=O)CCCN(C)C)cc2CC1=O
C=CCN1C(=O)[C@@]2(O[C@@H](CCn3cc(CCO)nn3)[C@H]([Si](C)(C)c3ccc(OC)cc3)[C@H]2C)c2cc(N3CCC3=O)ccc21
CN(C)CCCNC(=O)C[C@H]1C=C[C@H](NS(=O)(=O)c2ccccc2)[C@H](CO)O1
C[C@H]1CCCCO[C@H](CN(C)C(=O)CCC(F)(F)F)[C@@H](C)CN([C@@H](C)CO)C(=O)c2cc(NS(=O)(=O)c3ccc(F)cc3)ccc2O1
C[C@@H]1CN([C@@H](C)CO)C(=O)c2ccccc2-c2ccccc2CO[C@@H]1CN(C)Cc1cccc(C(F)(F)F)c1
O=C(Nc1ccc(C(F)(F)F)cc1)Nc1ccc2c(c1)[C@@H]1C[C@H](CC(=O)N3CCc4ccccc4C3)O[C@@H](CO)[C@@H]1O2
C[C@H](O)C#Cc1ccc2c(c1)O[C@H](CN(C)C)[C@@H](C)CN([C@@H](C)CO)S2(=O)=O
C[C@@H]1CN([C@@H](C)CO)C(=O)c2cccc(NS(=O)(=O)c3ccccc3)c2O[C@H]1CN(C)Cc1ccncc1
CC(C)=CCC[C@](C)(O[C@@H]1O[C@H](CO[C@@H]2OC[C@@H](O)[C@H](O)[C@H]2O)[C@@H](O)[C@H](O)[C@H]1O)[C@H]1CC[C@]2(C)[C@@H]1[C@H](O)C[C@@H]1[C@@]3(C)CC[C@H](O[C@@H]4O[C@H](CO)[C@@H](O)[C@H](O)[C@H]4O)C(C)(C)[C@@H]3CC[C@]12C
C[C@H]1CCCCO[C@H](CN(C)C(=O)Nc2cccc3ccccc23)[C@@H](C)CN([C@@H](C)CO)C(=O)c2cc(NC(=O)NC3CCCCC3)ccc2O1
C[C@H]1CN([C@@H](C)CO)C(=O)Cc2cc(NC(=O)Cc3ccccc3)ccc2O[C@@H]1CN(C)Cc1ccc(Cl)c(Cl)c1
Cc1ccc(S(=O)(=O)N(C)C[C@H]2Oc3ccc(NC(=O)c4ccncc4)cc3C(=O)N([C@H](C)CO)C[C@@H]2C)cc1
